Experimental findings from PubChem BioAssay AID488969 (Vanderbilt High Throughput Screening Facility, 2010) are described below.

In all, about 110,000 compounds were measured (“z-score”: median about -0.1, highest 2% from about 2 on). Some of the results follow. The source made the active and inactive calls.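 How the source made its calls: active means z-score in the third read window above 3 or below -3; inactive means the rest.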

The target of the test is Metabotropic glutamate receptor 8 (Rattus norvegicus) (UniProt P70579). The experiment in a line: mGluR8 Gi/Go-coupled signaling modulation – cell-based, rat, thallium flux, HTS, primary screen (AID 488969). Conditions: HEK293 rat mGluR8, GIRK (G protein-gated inwardly rectifying potassium channel) thallium flux, FluoZin2; at 10 µM; stronger effect = higher value; submaximal glutamate (EC20) added with thallium.
Chain of UniProt P70579 (P70579 whole entry, looked up): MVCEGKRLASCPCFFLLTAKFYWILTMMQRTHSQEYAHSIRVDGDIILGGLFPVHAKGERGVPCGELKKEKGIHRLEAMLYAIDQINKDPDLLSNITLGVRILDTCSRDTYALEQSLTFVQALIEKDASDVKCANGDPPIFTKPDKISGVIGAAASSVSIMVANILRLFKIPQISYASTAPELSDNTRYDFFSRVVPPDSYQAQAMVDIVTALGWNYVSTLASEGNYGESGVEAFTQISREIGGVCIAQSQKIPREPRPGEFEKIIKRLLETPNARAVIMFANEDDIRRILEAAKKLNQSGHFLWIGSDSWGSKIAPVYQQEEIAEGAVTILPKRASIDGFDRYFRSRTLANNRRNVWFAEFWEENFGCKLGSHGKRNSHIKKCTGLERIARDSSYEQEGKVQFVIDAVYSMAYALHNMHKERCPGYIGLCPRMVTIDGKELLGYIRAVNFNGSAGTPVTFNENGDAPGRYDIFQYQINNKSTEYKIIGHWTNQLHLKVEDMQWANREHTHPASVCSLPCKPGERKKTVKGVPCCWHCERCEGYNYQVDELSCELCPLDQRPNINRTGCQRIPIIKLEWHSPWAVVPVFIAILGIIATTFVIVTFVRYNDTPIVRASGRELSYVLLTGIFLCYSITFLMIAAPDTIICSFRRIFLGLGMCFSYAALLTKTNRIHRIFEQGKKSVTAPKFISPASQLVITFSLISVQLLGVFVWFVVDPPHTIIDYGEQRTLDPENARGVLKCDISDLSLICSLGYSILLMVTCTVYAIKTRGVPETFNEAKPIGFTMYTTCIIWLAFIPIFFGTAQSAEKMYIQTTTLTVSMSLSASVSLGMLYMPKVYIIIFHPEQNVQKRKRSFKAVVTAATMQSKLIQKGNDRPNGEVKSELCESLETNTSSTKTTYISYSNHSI
Consider `CCc1ccccc1N=C1S/C(=C/c2ccccc2OCC(=O)N2CCOCC2)C(=O)N1C`, for which the z-score came out at 0.0462. For `Cc1ccc(S(=O)(=O)Nc2ccc3nc(N)sc3c2)cc1`, the z-score was 0.381. The figure for `CC(=O)Nc1cccc(NS(=O)(=O)Cc2ccc(Cl)cc2)c1` is 0.0926; for `CCOC(=O)c1sc(NC(=O)Nc2ccc(Cl)cc2)nc1C` it is -0.204.

`CCCCOc1ccc(C(=O)OCC(=O)Nc2cc(C)c(C)cc2[N+](=O)[O-])cc1` displayed a z-score of -0.346. The figure for `O=C1NCCCC1C(=O)NCCNC(=O)C(F)(F)F` (stereo unspecified) is -0.397; for `COc1ccc(OC)c(NC(=O)CSc2nnc(CNC(=O)c3ccco3)o2)c1` it is -0.27; for `Cc1onc(-c2ccccc2)c1C(=O)NCC1CCCO1` (stereo unspecified) it is 0.327. The figure for `CCOc1ccc2[nH]cc(C(=O)N3CCN(CC)CC3)c(=O)c2c1` is -0.0379; for `C/C(N)=C(/C#N)C(=O)CN1CCCCC1` it is 0.678; for `Cc1ccc(C)c(NC(=O)c2sc(Cl)nc2C)c1` it is -0.149.

The molecule `CC1=CS(=O)(=O)CC1Sc1nc2ccccc2[nH]1` (stereo unspecified) gave a z-score of -0.0966.

The molecule `CCn1c2c(c3cc(Br)ccc31)CCC/C2=N\O` gave a z-score of -0.383. As for `COCCCNC(=O)CN1C(=O)/C(=C\c2ccc(C)cc2)Sc2ccccc21`, the z-score was -0.0454. `C/C(=N/NC(=O)c1ccc(NC(=O)c2ccc(F)cc2)cc1)c1ccccc1` gave a z-score of 0.427. For `CC(=O)NCCNC(=O)CNC(=O)c1ccc(Cl)cc1`, the z-score is -0.109.

In turn, `N#Cc1nc(COc2ccc(Br)cc2)oc1N1CCCCCC1` returned a z-score of -0.364. Regarding `COc1cc(NS(=O)(=O)c2cc(C)ccc2OC)c(OC)cc1Cl`, the z-score was found to be 0.494. For `CCCCn1c(CN2CCN(CCO)CC2)nc2ccccc21`, the z-score came out at 0.204. The molecule `COc1ccc(N(CC(=O)NCCSCc2c(F)cccc2Cl)S(C)(=O)=O)cc1OC` yielded a z-score of -0.0849.

For the molecule `CCCC(=O)Nc1ccc(N2CCCCC2)cc1`, the z-score was 0.0444. With `CC(C)Oc1ccc(C2CNC(=O)C2)cc1` (stereo unspecified), the z-score is -0.236.

The molecule `c1ccc(-c2ccc(-n3ccnc3)cc2)cc1` came in with a z-score of -0.146. In the case of `O=C(NNc1nc2ccccc2s1)c1ccccc1F`, the z-score worked out at 1.11.

With `O=C(NC(C(=O)O)c1ccccc1)c1ccccc1` (stereo unspecified), the z-score came to 0.488.

In the case of `CN(C)c1ccc(NC(=O)c2sc(SCC(=O)Nc3nccs3)nc2N)cc1`, the z-score is -0.189. The figure for `CCOc1ccc(NC(=O)CN(C)CC(=O)Nc2cccc(Cl)c2C)cc1OCC` is -0.618; for `Cc1ccccc1C(=O)Nc1ccc(-c2nc3ccc(C(=O)c4ccccc4)cc3[nH]2)cc1` it is -0.182. The figure for `CSc1cccc(NC(=O)CCCOc2ccccc2)c1` is 1.7. As to `CC(=O)c1cccc(NC(=O)Nc2c(C)nn(C)c2C)c1`, the z-score came to 0.31.

The molecule `CCN(CC)S(=O)(=O)c1ccc2c(c1)nc(CCC(=O)Nc1ccc3c(c1)OCO3)n2C` came in with a z-score of -0.132. The molecule `CCCOc1ccc(N2C(=O)C3ON(c4ccccc4)C(CCC)C3C2=O)cc1` (stereo unspecified) displayed a z-score of 0.0585. The figure for `Cc1cccc(CSc2ncnc3c2cnn3Cc2ccccc2)c1` is -0.46.

With `Cc1ccc(OCC(O)CN2CCN(CC(O)COC(C)C)CC2)c(C(C)(C)C)c1` (stereo unspecified), the z-score worked out at 1.54. The figure for `O=C(N/N=C/c1ccc(O)cc1)c1ccc(NC(=O)c2ccccc2Br)cc1` is -0.102; for `O=C(COC(=O)c1ccco1)Nc1ccc(Br)cc1` it is 1.83; for `CCCc1nnc(NC(=O)c2ccc(N3C(=O)C4C5C=CC(C5)C4C3=O)cc2)s1` (stereo unspecified) it is -0.362. The figure for `CCOC(=O)C1=C(CSc2nc(-c3ccncc3)ccc2C#N)OC(N)=C(C#N)C1c1ccc(OC)cc1` (stereo unspecified) is -0.202; for `COc1ccc(C)cc1S(=O)(=O)N(CC(=O)Nc1cccc([N+](=O)[O-])c1)c1ccc(C)c(C)c1` it is -0.702; for `CCCC(=O)Nc1ccc(NC(=O)c2cccc(OC)c2)nc1` it is 2.18.

`O=C(CSc1nc2ccccc2o1)Nc1ccccc1N1CCCCCC1` had a z-score of -0.0665. The figure for `C=CCNC(=O)NC(=O)COC(=O)COc1ccc(Br)cc1F` is -1.04. `O=C(CNCCO)N1CCc2ccccc21` displayed a z-score of 0.128. In the case of `Cc1cc(C)n(-c2ccc(C(=O)OCC(=O)Nc3cc(Cl)ccc3[N+](=O)[O-])cc2)n1`, the z-score was -0.0754. The figure for `CCOC(=O)c1c(C)n(C)c2ccc(O)c(CN(C)C)c12` is 2. The figure for `CC1CCCCC1NC(=O)COn1nnc2ccc(Cl)cc21` (stereo unspecified) is -0.171. The figure for `O=C(CNC(=O)c1ccc(F)cc1)N/N=C/c1cc(Br)ccc1OCc1ccccc1` is 0.0734; for `C=CCn1c(SCN2C(=O)c3ccccc3C2=O)nc2ccc(Cl)cc2c1=O` it is active: 12.6; for `COc1cc(C(=O)Nc2ccc(O)cc2)ccc1OC(C)=O` it is -0.00966. `COc1cccc(C(=O)Nn2c(-c3cccs3)nc3ccccc3c2=O)c1OC` returned a z-score of -0.339. The figure for `CC(C)(C)NC(=O)CC(c1ccccc1)c1ccccc1O` (stereo unspecified) is -0.408; for `COc1cccc(CSc2nnc(C(F)(F)F)n2Cc2ccc(F)cc2)c1` it is -0.542; for `CCCCN(CCCC)S(=O)(=O)c1ccc(C(=O)Nc2nnc(COC)o2)cc1` it is 1.03. The figure for `Cc1cc2ncn(CCCCOc3ccccc3)c2cc1C` is -0.187; for `O=C(NNC(=O)c1ccccc1Br)c1ccc(SCC2CCCO2)c([N+](=O)[O-])c1` (stereo unspecified) it is 0.0209; for `Cc1cc(C)nc(NCCCc2ccccc2)n1` it is 0.39. The figure for `C=CCc1ccc(OCCCCN2CCC(C)CC2)c(OC)c1` is 0.37; for `COCCNC(=O)C1c2cc(OC)c(OC)cc2C(=O)N(C)C1c1cccnc1` (stereo unspecified) it is 0.589; for `CCOC(=O)/C(N=Nc1sc(C(=O)OCC)c(C)c1C(=O)OCC)=C(\C)O` it is -0.334. Turning to `CC1CCN(CCNC(=O)C2CCCN(S(=O)(=O)c3cccc4nonc34)C2)CC1` (stereo unspecified), the z-score was 0.132. In turn, `O=[N+]([O-])c1ccc(N/N=C\c2cccn2-c2ccccc2)nc1` showed a z-score of -0.00582. `O=C(CCCc1ccccc1)Nc1cccnc1` displayed a z-score of 0.0742. The figure for `COc1ccc(OC)c(NC(=O)/C=C/c2ccccc2[N+](=O)[O-])c1` is -0.104; for `CCNc1nc(NC(C)C)nc(N(C#N)CCOc2ccc(Cl)cc2Cl)n1` it is -0.62; for `COc1ccc(NS(=O)(=O)c2cccc(NC(=O)CCS(=O)(=O)c3ccccc3)c2)cc1` it is -0.266. The molecule `CCOc1ccc(OCc2ccc(C(=O)O)o2)cc1` returned a z-score of -1.56.

The molecule `CCC(C)N=CC1=C(O)C(C(=O)OC)C(C)(C)CC1=O` (stereo unspecified) returned a z-score of -0.129. Molecule `CC1(C)CC(=O)C(C=NC(CCC(N)=O)C(=O)O)=C(O)C1` (stereo unspecified) came in with a z-score of 1.69. The figure for `CCOc1ccc(Cl)cc1S(=O)(=O)n1cnc2cc(C)c(C)cc21` is 0.0185; for `COc1ccc(S(=O)(=O)N2CCN(c3c(C)cccc3C)CC2)cc1OC` it is -0.315. In turn, `CCCCOP(=O)(c1ccc(N(C)C)cc1)C(O)c1ccncc1` (stereo unspecified) returned a z-score of -0.0443. The figure for `COc1cccc(OCC(=O)Nc2ccccc2C(N)=O)c1` is 0.418; for `O=C(Cn1c(-c2ccccn2)nc2ccccc21)NCCN1CCOCC1` it is 0.462; for `COc1ccccc1OCC(=O)Nc1cccc(-c2nc3ccccc3o2)c1` it is -0.173. The figure for `CCOC(=O)C1=NN(C(=O)Nc2ccc(OC)cc2)C2C(=O)N(c3cccc(C(F)(F)F)c3)C(=O)C12` (stereo unspecified) is -0.158; for `O=c1ccnc(NCCc2ccccc2)[nH]1` it is 0.381. The figure for `C/C(=N\NC(=S)Nc1cccc(C)c1)c1ccccc1` is active: 5.36; for `CCOc1ccccc1CNC(=O)C1CCC(=O)N1C(C)C` (stereo unspecified) it is 0.137; for `CCNc1cc(N2CCN(S(=O)(=O)c3ccc4c(c3)CCCC4)CC2)ccc1[N+](=O)[O-]` it is 0.0362. As for `Cc1[nH]n(-c2cccc3ccccc23)c(=O)c1C=Nc1ccc2[nH]c(=O)[nH]c2c1`, the z-score is -0.151. The figure for `O=C(N/N=C/c1ccccc1O)C1(O)c2ccccc2-c2ccccc21` is -0.141; for `CCCNC(=O)CN(c1ccc(F)cc1)S(=O)(=O)c1ccc2c(c1)OCCO2` it is -0.0348; for `Cc1sc(NC(=O)CN2CCOCC2)c(C(=O)c2ccccc2)c1C` it is -0.16. `CCC(=O)N(C)CCc1cc2c(c(OC)c1/C=N/NC(=O)c1ccc(Br)cc1)OCO2` had a z-score of -0.518.

Consider `CCCCNCCOCCOc1ccc(C)cc1Br`, for which the z-score was -0.351. The figure for `CC(=O)Nc1ccc(NC(=O)COC(=O)c2ccc(C)s2)cc1` is -0.0429; for `COc1ccc(C2CC(c3c(-c4ccccc4)c4cc(Cl)ccc4[nH]c3=O)=NN2S(C)(=O)=O)cc1OC` (stereo unspecified) it is -0.144. The figure for `CC(NC(=O)CN1C(=O)NC(Cc2ccccc2)(Cc2ccccc2)C1=O)C12CC3CC(CC(C3)C1)C2` (stereo unspecified) is 0.381; for `COC(=O)C1=C(C)NC(=S)NC1c1ccc(-c2cccc(Cl)c2)o1` (stereo unspecified) it is -0.157.

`CC(C)OC(=O)C(CC(=O)O)N1CCOCC1` (stereo unspecified) displayed a z-score of -0.0224.

For `CC1(C)CC(=O)C2=C(C1)N(c1ccccc1C#N)C(N)=C(C#N)C2c1cccs1` (stereo unspecified), the z-score was -0.944. The figure for `CCNC(=O)Cc1ccc(Br)cc1` is -0.118; for `Cc1ccc(Cn2ccc(NC(=O)c3cc4nc5c(c(C(F)(F)F)n4n3)CCc3ccccc3-5)n2)cc1` it is -0.0356.

As for `CCO/N=C(/C)c1c(O)cc(C(C)(C)C)n(-c2ccccc2)c1=O`, the z-score was -0.388. For `CC(C)Oc1ccc(Oc2ccc(C(F)(F)F)cn2)cc1`, the z-score was -0.146. The figure for `CCCCSCc1[nH]c(=O)[nH]c1C(=O)CCCCC(=O)OCC` is 0.784.

In turn, `CCCCSc1nc(C)nc2c1c(=O)n(C)c(=O)n2C` gave a z-score of -0.303.

In the case of `C/C(=N\O)C(=O)NCCCNCCCN(C)C`, the z-score was -0.317.

Turning to `CC1(C)CC2CC(C)(CN2c2ncnc3ccccc23)C1` (stereo unspecified), the z-score is -0.947. The molecule `CC(/C=N/NC(=O)CCn1nnc2ccccc21)=C\c1ccccc1` registered a z-score of -0.813. In the case of `O=c1nc(NC2CCCC2)ccn1Cc1cccc(Br)c1`, the z-score was -0.419. In the case of `CCCC(O)(CCN(C)C)c1ccc(OC)cc1` (stereo unspecified), the z-score is -0.12.

Turning to `O=C1CC(N2CCN(c3ccc(S(=O)(=O)N4CCCC4)cc3)CC2)C(=O)N1c1ccc(F)cc1` (stereo unspecified), the z-score is -0.454. The figure for `Cc1ccccc1NC(=O)C(C)c1cccc(C(=O)c2ccccc2)c1` (stereo unspecified) is -1.23; for `COc1cccc(/C=N/NC(=O)c2cc(-c3cccn3C)n[nH]2)c1O` it is 0.54; for `COc1ccc(OC)c(Nc2nc3nonc3nc2N2CCCC(C)C2)c1` (stereo unspecified) it is -0.105. The molecule `CCOC(=O)CCC(NC(=O)c1ccc(NCN2C(=O)CCC2=O)cc1)C(=O)OCC` (stereo unspecified) had a z-score of -0.434. The figure for `CCOc1ccccc1-c1nnc(SCC(=O)Nc2ccccc2)o1` is 0.401; for `Cn1cccc1C(=O)C(=O)Nc1cccc(Cl)c1Cl` it is -0.0708; for `CC(=O)C1C(c2ccc(F)c(F)c2)NC(=O)NC1(O)C(F)(F)F` (stereo unspecified) it is 0.336.

The molecule `CCN(CC)c1nc(Nc2ccccc2)nc(Oc2ccc(=O)[nH]n2)n1` showed a z-score of -1.5.
